The other results are listed elsewhere or left out. Antibody binding of pooled human sera (four to six donors per pool; dilution not stated) to peptides of the Trypanosoma cruzi antigen TSSA on microarrays. Quantile-normalised fluorescence in arbitrary units, mean of duplicate arrays; higher = more binding. No active / inactive call. The uninfected pools are read here as the healthy donors of the same country. The strongest signals lie near the top of the scale (about 60,000).

In this assay the test system is pooled sera of chronic Chagas disease patients, Argentina. The assay is described as follows: antibody binding signal (normalised fluorescence) (arbitrary fluorescence units); higher = stronger serum antibody binding to peptide. Here is the method: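 Microarray of 15-residue peptides over residues 30-55 of Trypanosoma cruzi TSSAII, each with 1 to 10 substitutions at naturally variable positions, probed with one serum pool per country.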
The sequence KDNKPAAGGAPSQSG displayed an antibody binding signal of 195. SGKENKAATGGTPSQ yielded an antibody binding signal of 3260.

Sequence KDKKTAAGETPSPSG showed an antibody binding signal of 173.

Regarding GTDKKTATGEAPSQP, the antibody binding signal was determined as 13100. To EKKTAAGGAPSQPGA belongs 282; to KKTATGGTPSQPGAS, 379; to NKTATGEAPSQPGAS, 13100. Then GKENKAATGGAPSQS, with 4030.

Regarding KDKKAATGGTPSPSG, the antibody binding signal worked out at 317. To PSGTENKTAAGGTPS belongs 49600. As for DNKPAAGGAPSPPGA, the antibody binding signal came out at 178. To TPPSGTEKKTAAGET belongs 20100. The sequence TPPSGTDKKPAAGGA had an antibody binding signal of 37300.

In the case of GTDNKPAAGGAPSQP, the antibody binding signal is 4130.

In the case of EKKPAAGGAPSPSGA, the antibody binding signal was 1470. Then SGTEKKPAAGEAPSP, with 4350. On to PPSGKENKAATGEAP, for which the antibody binding signal was 27200. To TPPSGKENKTAAGET belongs 14400; to GKDKKPATGEAPSPP, 42100. PSGTENKAATGETPS showed an antibody binding signal of 36800.

As to NKTATGGTPSQSGAS, the antibody binding signal was found to be 502. GKENKAATGEAPSQP came in with an antibody binding signal of 30100. The sequence PPSGTENKTAAGGTP came in with an antibody binding signal of 48000. To KDNKTAAGGAPSQPG belongs 516; to PSGTENKAAAGGAPS, 49300.

Sequence ENKTATGGAPSQPGA came in with an antibody binding signal of 624. Then PSGKEKKPAAGGTPS, with 6860.

Sequence ISTPPSGTENKAATG showed an antibody binding signal of 51700. In the case of KDNKTATGGAPSQPG, the antibody binding signal worked out at 491.

KKAAAGGAPSPSGAS returned an antibody binding signal of 223.

GKEKKPATGGTPSPP came in with an antibody binding signal of 7370. As to TDKKPAAGETPSQSG, the antibody binding signal is 521. The sequence TDNKAAAGEAPSQPG gave an antibody binding signal of 6510. To TDNKPAAGGTPSQPG belongs 1040; to TDNKTATGETPSQPG, 2640; to EKKPAAGEAPSPPGA, 896. Then KEKKAATGETPSPSG, with 556; and SGTENKTAAGGAPSQ, with 30200.

TPPSGTENKPAAGEA registered an antibody binding signal of 47600. To TDNKPAAGEAPSPPG belongs 3100.

Values taken from the supplement of paper PMC10441789.
